# In PubChem BioAssay AID1461 (National Center for Advancing Translational Sciences (NCATS), 2008):
# In all, about 220,000 compounds went through this assay and about 2,300 (1%) were called active. The shares of active, inactive and inconclusive entries below differ from those in the screen. Calls come from the whole dose curve; as a rule, active = well fitted inhibition curve with a large enough effect; inconclusive = small, poorly fitted or top-dose-only effect, or effect the other way; inactive = no such curve, though single readings can be large or run the other way. Potencies of inconclusive entries are left out as doubtful fits.
# Molecular target: Neuropeptide S receptor (Homo sapiens) (UniProt Q6W5P4)
# Sequence of UniProt Q6W5P4 (Q6W5P4 whole entry, looked up): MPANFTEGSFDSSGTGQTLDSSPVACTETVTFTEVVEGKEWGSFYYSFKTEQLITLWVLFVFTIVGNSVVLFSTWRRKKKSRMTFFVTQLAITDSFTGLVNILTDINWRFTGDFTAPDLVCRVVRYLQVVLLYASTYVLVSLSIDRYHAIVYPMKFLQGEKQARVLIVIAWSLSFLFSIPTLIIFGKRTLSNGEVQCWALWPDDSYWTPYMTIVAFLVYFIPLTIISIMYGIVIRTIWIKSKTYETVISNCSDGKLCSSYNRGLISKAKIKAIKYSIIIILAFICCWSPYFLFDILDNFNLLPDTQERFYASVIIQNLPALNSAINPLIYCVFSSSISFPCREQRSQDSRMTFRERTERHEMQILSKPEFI
# Test: qHTS Assay for Antagonists of the Neuropeptide S Receptor: cAMP Signal Transduction; note: nearly all actives have a fitted effect of over 50% in size
# Conditions: CHO-NPSR cells, cAMP TR-FRET, antagonist mode; activity change, negative = inhibition: at 38.3 µM (top of the series) unless noted
# % is set by controls: 0 for no effect and ±100 for the full control effect; potency is the fitted concentration of half-maximal effect; tags give direction and shape of the fitted curve.
Structure (SMILES),Potency,"activity change, negative = inhibition"
C[C@@H](Oc1ccc(Oc2cnc3ccc(Cl)cc3n2)cc1)C(=O)O,"inconclusive [inhibitor, full curve, poor fit]",–
CN(C)c1ccc(P(=O)(OCc2ccccc2)C(O)c2ccncc2)cc1 (configuration not stated),–,inactive: -9.41% [at 46.1 µM]
COCCCN1CCN(C2Cc3ccccc3Sc3ccc(Cl)cc32)CC1 (configuration not stated),–,inactive: -18%
COc1ccc(N/C=C2\CCc3ccccc3C2=O)cc1,–,inactive: 21.8%
NS(=O)(=O)c1cccc(NC(=O)CSc2nc3ccc(Cl)cc3[nH]2)c1,–,inactive: -1.03%
CCOC(=O)Cc1ccc(NC(=O)c2ccc(C(C)(C)C)cc2)cc1,–,inactive: -23.6% [at 46.1 µM]
O=C(CSc1nnc(-c2ccc3c(c2)OCCO3)o1)NC1CCCCC1,"inconclusive [inhibitor, single point]",–
Cc1cccc(N2CCN(CC(O)COc3ccccc3Cl)CC2)c1 (configuration not stated),"inconclusive [inhibitor, single point]",–
COc1ccc(C=NCCCN2CCOCC2)cc1,–,inactive: 1.78% [at 46.1 µM]
Cc1[nH]n2c(=O)c3c(nc2c1-c1cccc2ccccc12)CCC3,"inconclusive [inhibitor, single point]",–
OC(CN1CCC(Cc2ccc(F)cc2)CC1)c1ccc(Cl)cc1 (configuration not stated),"inconclusive [inhibitor, partial curve]",–
COC(=O)C1=CN(Cc2cccs2)C=C(C(=O)OC)C1c1cccc(Cl)c1,"inconclusive [inhibitor, single point]",–
c1ccc(-c2noc(-c3ccc4ccccc4c3)n2)nc1,"inconclusive [inhibitor, partial curve]",–
Cc1ccc2c(COn3nnc4ccc(S(=O)(=O)N(C)C)cc43)cc(=O)oc2c1C,–,inactive: -6.53% [at 46.1 µM]
CC(C)(C)c1ccc(Cn2nnc3c(=O)[nH]c(C4CCCN(C(=O)Cc5cccs5)C4)nc32)cc1 (configuration not stated),"inconclusive [inhibitor, partial curve]",–
Clc1ccc(OCc2nnc(SCc3nnc(-c4ccccc4)o3)o2)c(Cl)c1,"inconclusive [inhibitor, partial curve]",–
COc1ccccc1CNc1ncnc2cc(Cl)ccc12,"inconclusive [inhibitor, single point]",–
Cc1nnc(C)c2c(C)n(-c3cccc4cccnc34)c(C)c12,"inconclusive [activator, single point]",–
CCC(C)c1ccc(NC(=O)C2CC2)cc1 (configuration not stated),"inconclusive [activator, single point]",–
Cc1ccccc1CSc1nnc(-c2ccco2)n1Cc1ccco1,"inconclusive [inhibitor, single point]",–
COc1cc(CN2CCNC(=O)C2CC(=O)NCCC2=CCCCC2)cc(OC)c1 (configuration not stated),–,inactive: -0.788%
CC(=O)N1CCCc2cc(S(=O)(=O)NCCC3=CCCCC3)ccc21,–,inactive: -3.77% [at 46.1 µM]
CCOc1cc(/C=C2\SC(=Nc3ccc(F)cc3)N(c3ccc(F)cc3)C2=O)ccc1OCC(=O)O,"inconclusive [activator, partial curve]",–
O=c1cc(N2CCCCC2)c(-c2ccccc2)nn1Cc1ccc(Cl)cc1Cl,"inconclusive [inhibitor, partial curve]",–

Structure (SMILES),Potency,"activity change, negative = inhibition"
C(=Nc1ccc(N2CCOCC2)cc1)c1c[nH]c2ccccc12,–,inactive: -4.09%
Nc1ccc(SC(F)(F)F)cc1,–,inactive: 12.4%
N#Cc1ccccc1CSc1nc(N2CCCCC2)nc(N2CCCCC2)n1,"inconclusive [inhibitor, full curve, poor fit]",–
O=C(CN1C(=O)NC2(CCCCCCC2)C1=O)NCc1ccc2c(c1)OCO2,–,inactive: -2.54% [at 46.1 µM]
O=Cc1[nH]c2ccccc2c1N(C(=O)CCl)c1ccc([N+](=O)[O-])cc1,"inconclusive [activator, single point]",–
Clc1ccccc1CN(Cc1ccco1)Cc1nnnn1C1CCCC1,"inconclusive [inhibitor, partial curve]",–
C=CCn1cc(C(=O)NCc2ccco2)c(=O)c2cc(S(=O)(=O)N3CCCCCC3)ccc21,"inconclusive [inhibitor, partial curve]",–
COc1ccc(CCN(Cc2cc3cc(C)c(C)cc3nc2Cl)C(=O)C2CC2)cc1,"inconclusive [inhibitor, single point]",–
CCOC(=O)C1=C(CC)Nc2ccccc2N=C1NC(=O)c1ccc(OC)c(S(=O)(=O)N2CCCCC2C)c1 (configuration not stated),–,inactive: -42.9%
O=C(O)c1cnc(-c2ccccc2)nc1-c1ccccc1,–,inactive: -7.91%
C=CCSc1nc(N)c(C(=O)Nc2ccccc2C)cc1C(N)=O,"inconclusive [inhibitor, single point]",–
O=S(=O)(NCc1ccccc1Cl)c1cccs1,–,inactive: 19.3%
COc1ccc(OCC(O)CN2C(=O)c3ccccc3S2(=O)=O)cc1 (configuration not stated),–,inactive: -17.8% [at 46.1 µM]
COC(=O)CCN(c1ccccc1)S(=O)(=O)c1ccc(OC)cc1,"inconclusive [activator, full curve, poor fit]",–
CN1CC(=O)N(CC(=O)Nc2ccc(N(C)C)cc2)c2ccccc2C1=O,"inconclusive [inhibitor, full curve]",–
NC(=O)C1CCN(C(=O)c2ccc3c(=O)n(Cc4ccco4)c(SCC(=O)c4ccc(F)cc4)nc3c2)CC1,–,inactive: -33.6%
O=C(Nc1ccccc1N1CCOCC1)c1csc2c1CCCC2,"inconclusive [activator, partial curve]",–
Cc1c(C(=O)O)c(-c2ccccc2)nn1-c1ccccc1,–,inactive: -3.89% [at 46.1 µM]
COC(=O)C1(S(=O)(=O)C2(C(=O)OC)CCCC2)CCCC1,"inconclusive [inhibitor, full curve]",–
CCOC(=O)C1=C(N)N2C(=O)C(C)SC2=C(C(=O)OC)C1c1ccccc1OC (configuration not stated),"inconclusive [inhibitor, single point]",–
O=C(Cn1cnc2c(cnn2-c2ccc(F)cc2)c1=O)NCc1ccco1,"inconclusive [inhibitor, single point]",–
Cc1cc(C(C)(C)C)oc1C(=O)N(CC(=O)NC1CCCC1)Cc1ccccc1,"inconclusive [inhibitor, partial curve]",–
Cc1cc(C(=O)N2CCCC(CNS(=O)(=O)c3cccs3)C2)nn1C (configuration not stated),–,inactive: -15.9%
O=S(=O)(c1ccc(Cl)c(Cl)c1)c1snnc1-c1ccccc1,"inconclusive [inhibitor, single point]",–

Structure (SMILES),Potency,"activity change, negative = inhibition"
CCCOc1ccccc1C1CC(=O)Nc2cc3c(cc21)OCCO3 (configuration not stated),"inconclusive [activator, single point]",–
COc1ccc(NCc2nnc(SCC(=O)NCc3ccccc3)n2-c2ccccc2OC)cc1,"inconclusive [inhibitor, partial curve]",–
O=C(CNS(=O)(=O)c1ccccc1)NCC(=O)OCc1ccc(C(=O)c2ccccc2)cc1,–,inactive: 15.9%
CCOC(=O)c1ccc(Nc2nc(C(=O)OCC)nc3ccccc23)cc1,"inconclusive [inhibitor, single point]",–
Clc1ccc(C2=C3CCCCn4c(-c5ccccc5)c[n+](c43)C2)cc1,"inconclusive [inhibitor, partial curve]",–
CCCNC(=O)c1c(N)n(-c2cccc(OC)c2)c2nc3ccccc3nc12,"inconclusive [inhibitor, single point]",–
CCOC(=O)c1c(N)sc(C(N)=O)c1C,–,inactive: 21.4% [at 46.1 µM]
Cc1ccc(-n2c(=S)[nH]c3sc4c(c3c2=O)CCC4)cc1,active: 7.94 µM,–
CC(C)CCn1c(-c2nonc2N)nc2ccccc21,–,inactive: 0.566% [at 46.1 µM]
COc1ccc(N=Nc2cnc(C)nc2-c2ccccc2)cc1,"inconclusive [inhibitor, partial curve]",–
COc1ccc2nc(SCC(=O)N3CCCCCC3)c(C#N)cc2c1,"inconclusive [inhibitor, partial curve]",–
CC(=O)c1ccc(Sc2ccccn2)c([N+](=O)[O-])c1,–,inactive: 22.1%
O=C1c2ccccc2C(=O)C12OC2c1ccc(Cl)cc1 (configuration not stated),"inconclusive [inhibitor, single point]",–
O=C(NCC1COc2ccccc2O1)c1c[nH]c2ccc(S(=O)(=O)N3CCOCC3)cc2c1=O (configuration not stated),"inconclusive [inhibitor, single point]",–
CCCCN(CC)C(=O)CSc1nc2ccccc2c(=O)n1CC1COc2ccccc2O1 (configuration not stated),"inconclusive [inhibitor, partial curve]",–
CCOc1ccc(NC2=NC(C)(C)N=C(N)N2)cc1,"inconclusive [inhibitor, single point]",–
Cc1ccc(NC(=O)c2ccccc2NC(=O)Cc2ccccc2)cc1,–,inactive: -4.64%
O=C(CCCn1c(SCC(=O)NCC2CCCO2)nc2ccccc2c1=O)NCc1ccccc1 (configuration not stated),–,inactive: -4.9% [at 46.1 µM]
N=c1n(CCN2CCCC2)c2ccccc2n1CC(O)c1ccc(Cl)c(Cl)c1 (configuration not stated),"inconclusive [activator, single point]",–
CCCCCCCCCCCCCCCCCC(=O)NCC(COP(=O)([O-])OCC[N+](C)(C)C)OCC (configuration not stated),"inconclusive [inhibitor, single point]",–
CCOC(=O)c1oc2ccccc2c1NC(=O)CCl,"inconclusive [activator, single point]",–
COc1cc(-c2nc3ccccn3c2/N=C/c2ccccc2)ccc1O,"inconclusive [inhibitor, partial curve]",–
COCCn1nnnc1C(c1ccc2ncccc2c1)N1CCN(c2ccccc2F)CC1 (configuration not stated),"inconclusive [inhibitor, partial curve, poor fit]",–
CC(C)Oc1ccc(C(=O)N(Cc2ccco2)C2CCS(=O)(=O)C2)cc1 (configuration not stated),"inconclusive [inhibitor, single point]",–
